Laboratory results as given in the supplement of paper PMC4967469.
IC50 is the fitted dose that halves viability relative to control wells, and lower means more sensitive; where the fit passes the top or lowest dose, that dose stands as a limit. For AUC the same curve is integrated over the 256-fold range of doses and scaled to a fraction; the more sensitive the line, the further below 1. For some assays here: Where the top dose is marked as inferred, it comes from the curve model; the source does not state it. For some assays here: Where an entry number is given, a second screen of the drug exists; the two often differ.

Experiments:
Test in all cases: Viability of human cancer cell lines after 72 h of drug (GDSC screen)
KIN001-270 = compound: Cc1ccc(Nc2cc(-c3cccc(N4C(=O)c5ccccc5C4=O)c3)ncn2)cc1NS(C)(=O)=O [KIN001-270]; details: top dose 20 µM; top dose inferred
Procedure: (§1)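 Human cancer cell lines in 384-well plates, medium with 10% serum, drug for 72 h over a 256-fold dose range (nine 2-fold or five 4-fold steps up to the top dose). Adherent lines were fixed and stained with the nucleic acid dye Syto60, suspension lines read with resazurin; signal relative to control wells, capped at 0 and 100%. One two-parameter sigmoid per drug and line, fitted in a mixed model over all curves with the slope shared within a line.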

T0901317 = compound: O=S(=O)(c1ccccc1)N(CC(F)(F)F)c1ccc(C(O)(C(F)(F)F)C(F)(F)F)cc1 [T0901317]; details: top dose 10.24 µM; top dose inferred
Procedure: as §1

TW-37 = compound: CC(C)c1ccccc1Cc1cc(C(=O)Nc2ccc(S(=O)(=O)c3ccccc3C(C)(C)C)cc2)c(O)c(O)c1O [TW-37]; details: top dose 5 µM
Procedure: as §1

Gemcitabine = compound: Nc1ccn([C@@H]2O[C@H](CO)[C@@H](O)C2(F)F)c(=O)n1 [Gemcitabine]; details: top dose 1.024 µM
Procedure: as §1

MP470 = compound: S=C(NCc1ccc2c(c1)OCO2)N1CCN(c2ncnc3c2oc2ccccc23)CC1 [MP470]; details: top dose 20 µM; top dose inferred
Procedure: as §1

LFM-A13 = compound: C/C(O)=C(\C#N)C(=O)Nc1cc(Br)ccc1Br [LFM-A13]; details: top dose 16 µM; top dose inferred
Procedure: as §1

Nilotinib = compound: Cc1cn(-c2cc(NC(=O)c3ccc(C)c(Nc4nccc(-c5cccnc5)n4)c3)cc(C(F)(F)F)c2)cn1 [Nilotinib]; details: top dose 2 µM
Procedure: as §1

AUY922 = compound: CCNC(=O)c1noc(-c2cc(C(C)C)c(O)cc2O)c1-c1ccc(CN2CCOCC2)cc1 [AUY922]; details: top dose 0.256 µM; top dose inferred
Procedure: as §1

Bicalutamide = compound: CC(O)(CS(=O)(=O)c1ccc(F)cc1)C(=O)Nc1ccc(C#N)c(C(F)(F)F)c1 [Bicalutamide]; details: top dose inferred
Procedure: as §1

[1] = top dose 1.024 µM, screen: GDSC drug entry 150
[2] = top dose 10 µM, screen: GDSC drug entry 1502

## FU97 (stomach, adherent)
KIN001-270
  AUC: 0.948
  IC50: > 20 µM
T0901317
  AUC: 0.982
  IC50: > 10.2 µM
TW-37
  AUC: 0.55
  IC50: 429 nM
Gemcitabine
  AUC: 0.954
  IC50: > 1020 nM
MP470
  AUC: 0.85
  IC50: 15.8 µM
LFM-A13
  AUC: 0.922
  IC50: > 16 µM
Nilotinib
  AUC: 0.966
  IC50: > 2000 nM
AUY922
  AUC: 0.588
  IC50: 28.1 nM
Bicalutamide; [1]
  AUC: 0.986
  IC50: > 1.02 µM
Bicalutamide; [2]
  AUC: 0.964
  IC50: > 10 µM

## OE19 (oesophagus, adherent)
KIN001-270
  AUC: 0.986
  IC50: > 20 µM
T0901317
  AUC: 0.981
  IC50: > 10.2 µM
TW-37
  AUC: 0.867
  IC50: > 5000 nM
Gemcitabine
  AUC: 0.678
  IC50: 216 nM
MP470
  AUC: 0.782
  IC50: 9.58 µM
LFM-A13
  AUC: 0.966
  IC50: > 16 µM
Nilotinib
  AUC: 0.985
  IC50: > 2000 nM
AUY922
  AUC: 0.561
  IC50: 24 nM
Bicalutamide; [1]
  AUC: 0.986
  IC50: > 1.02 µM
Bicalutamide; [2]
  AUC: 0.983
  IC50: > 10 µM

## OVMIU (ovary, adherent)
KIN001-270
  AUC: 0.976
  IC50: > 20 µM
T0901317
  AUC: 0.965
  IC50: > 10.2 µM
TW-37
  AUC: 0.445
  IC50: 213 nM
Gemcitabine
  AUC: 0.618
  IC50: 147 nM
MP470
  AUC: 0.902
  IC50: > 20 µM
LFM-A13
  AUC: 0.953
  IC50: > 16 µM
Nilotinib
  AUC: 0.981
  IC50: > 2000 nM
AUY922
  AUC: 0.572
  IC50: 26.4 nM
Bicalutamide; [1]
  AUC: 0.98
  IC50: > 1.02 µM
Bicalutamide; [2]
  AUC: 0.96
  IC50: > 10 µM

## 647-V (bladder, adherent)
KIN001-270
  AUC: 0.986
  IC50: > 20 µM
T0901317
  AUC: 0.98
  IC50: > 10.2 µM
TW-37
  AUC: 0.447
  IC50: 224 nM
Gemcitabine
  AUC: 0.182
  IC50: 7.05 nM
MP470
  AUC: 0.968
  IC50: > 20 µM
LFM-A13
  AUC: 0.981
  IC50: > 16 µM
Nilotinib
  AUC: 0.987
  IC50: > 2000 nM
AUY922
  AUC: 0.618
  IC50: 33.8 nM
Bicalutamide; [1]
  AUC: 0.986
  IC50: > 1.02 µM
Bicalutamide; [2]
  AUC: 0.985
  IC50: > 10 µM

## SW1710 (bladder, adherent)
KIN001-270
  AUC: 0.98
  IC50: > 20 µM
T0901317
  AUC: 0.965
  IC50: > 10.2 µM
TW-37
  AUC: 0.554
  IC50: 440 nM
Gemcitabine
  AUC: 0.059
  IC50: < 4 nM
MP470
  AUC: 0.954
  IC50: > 20 µM
LFM-A13
  AUC: 0.95
  IC50: > 16 µM
Nilotinib
  AUC: 0.985
  IC50: > 2000 nM
AUY922
  AUC: 0.319
  IC50: 4.89 nM
Bicalutamide; [1]
  AUC: 0.984
  IC50: > 1.02 µM
Bicalutamide; [2]
  AUC: 0.962
  IC50: > 10 µM

## EFO-21 (ovary, adherent)
KIN001-270
  AUC: 0.97
  IC50: > 20 µM
T0901317
  AUC: 0.979
  IC50: > 10.2 µM
TW-37
  AUC: 0.772
  IC50: 2840 nM
Gemcitabine
  AUC: 0.47
  IC50: 51.1 nM
MP470
  AUC: 0.943
  IC50: > 20 µM
LFM-A13
  AUC: 0.968
  IC50: > 16 µM
Nilotinib
  AUC: 0.98
  IC50: > 2000 nM
AUY922
  AUC: 0.681
  IC50: 64.6 nM
Bicalutamide; [1]
  AUC: 0.979
  IC50: > 1.02 µM
Bicalutamide; [2]
  AUC: 0.958
  IC50: > 10 µM

## ES6 (Ewing sarcoma, adherent)
KIN001-270
  AUC: 0.945
  IC50: > 20 µM
T0901317
  AUC: 0.979
  IC50: > 10.2 µM
TW-37
  AUC: 0.526
Gemcitabine
  AUC: 0.178
  IC50: 5.14 nM
MP470
  AUC: 0.942
  IC50: > 20 µM
LFM-A13
  AUC: 0.957
  IC50: > 16 µM
Nilotinib
  AUC: 0.982
  IC50: > 2000 nM
AUY922
  AUC: 0.37
  IC50: 6.42 nM
Bicalutamide; [1]
  AUC: 0.982
  IC50: > 1.02 µM
Bicalutamide; [2]
  AUC: 0.976
  IC50: > 10 µM

## OCUM-1 (stomach, adherent)
KIN001-270
  AUC: 0.983
  IC50: > 20 µM
T0901317
  AUC: 0.968
  IC50: > 10.2 µM
TW-37
  AUC: 0.56
  IC50: 463 nM
Gemcitabine
  AUC: 0.385
  IC50: 29.8 nM
MP470
  AUC: 0.865
  IC50: > 20 µM
LFM-A13
  AUC: 0.982
  IC50: > 16 µM
Nilotinib
  AUC: 0.987
  IC50: > 2000 nM
AUY922
  AUC: 0.736
  IC50: 82.4 nM
Bicalutamide; [1]
  AUC: 0.977
  IC50: > 1.02 µM
Bicalutamide; [2]
  AUC: 0.984
  IC50: > 10 µM

## KYM-1 (rhabdomyosarcoma, adherent)
KIN001-270
  AUC: 0.99
  IC50: > 20 µM
T0901317
  AUC: 0.983
  IC50: > 10.2 µM
TW-37
  AUC: 0.634
  IC50: 691 nM
Gemcitabine
  AUC: 0.024
  IC50: < 4 nM
MP470
  AUC: 0.926
  IC50: > 20 µM
LFM-A13
  AUC: 0.991
  IC50: > 16 µM
Nilotinib
  AUC: 0.981
  IC50: > 2000 nM
AUY922
  AUC: 0.777
  IC50: 87.9 nM
Bicalutamide; [1]
  AUC: 0.99
  IC50: > 1.02 µM
Bicalutamide; [2]
  AUC: 0.967
  IC50: > 10 µM

## SK-HEP-1 (liver, adherent)
KIN001-270
  AUC: 0.975
  IC50: > 20 µM
T0901317
  AUC: 0.973
  IC50: > 10.2 µM
TW-37
  AUC: 0.703
  IC50: 1110 nM
Gemcitabine
  AUC: 0.285
  IC50: 16.5 nM
MP470
  AUC: 0.801
  IC50: 9.01 µM
LFM-A13
  AUC: 0.973
  IC50: > 16 µM
Nilotinib
  AUC: 0.989
  IC50: > 2000 nM
AUY922
  AUC: 0.413
  IC50: 9.41 nM
Bicalutamide; [1]
  AUC: 0.989
  IC50: > 1.02 µM
Bicalutamide; [2]
  AUC: 0.986
  IC50: > 10 µM

## H2731 (mesothelioma, adherent)
KIN001-270
  AUC: 0.984
  IC50: > 20 µM
T0901317
  AUC: 0.932
  IC50: > 10.2 µM
TW-37
  AUC: 0.594
  IC50: 588 nM
Gemcitabine
  AUC: 0.978
  IC50: > 1020 nM
MP470
  AUC: 0.893
  IC50: > 20 µM
LFM-A13
  AUC: 0.96
  IC50: > 16 µM
Nilotinib
  AUC: 0.984
  IC50: > 2000 nM
AUY922
  AUC: 0.928
  IC50: > 256 nM
Bicalutamide; [1]
  AUC: 0.984
  IC50: > 1.02 µM
Bicalutamide; [2]
  AUC: 0.982
  IC50: > 10 µM

## BFTC-905 (bladder, adherent)
KIN001-270
  AUC: 0.979
  IC50: > 20 µM
T0901317
  AUC: 0.965
  IC50: > 10.2 µM
TW-37
  AUC: 0.595
  IC50: 547 nM
Gemcitabine
  AUC: 0.033
  IC50: < 4 nM
MP470
  AUC: 0.951
  IC50: > 20 µM
LFM-A13
  AUC: 0.978
  IC50: > 16 µM
Nilotinib
  AUC: 0.986
  IC50: > 2000 nM
AUY922
  AUC: 0.479
  IC50: 14.1 nM
Bicalutamide; [1]
  AUC: 0.975
  IC50: > 1.02 µM
Bicalutamide; [2]
  AUC: 0.981
  IC50: > 10 µM
